The supplement of paper PMC11417369
The other results are listed elsewhere or left out.

The sequences below were run on PfSIP2 AP2 domain 1 (GST-tagged) (assay: gcPBM binding intensity (ln(normalized median fluorescence intensity)); higher = stronger DNA binding).
Procedure, shortened: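 Binding intensity is the highest Masliner-normalised natural-log median intensity over replicate spots in either probe orientation. To obtain it, GST-tagged P. falciparum DNA-binding domains made in E. coli were incubated for 1 h on an Agilent 4 × 180k array of primer-extended double-stranded 36-bp intergenic genomic probes plus negative controls. Detection used Alexa488 anti-GST antibody with scanning at 488 nm.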

Sequence	gcPBM binding intensity (ln)
AGTGAATATCTAAAATGTACATAAATAAATAAATAA [XGTACX_site8293]	7.32
CGTTATATCAAAGGAGTGCATTATGAATACGTTTTA [GTGCAC_site9837]	8.98
AAAAAAAAAAAACATACACACATACATACAGATATA [CACACA_site4681]	6.96
TTTCACTACACAAATACACACAAAAATATATGTGCA [CACACA_site2632]	7.08
TTCTATTTTATATGTGCACACATATACACCCACAAA [CACACA_site1130]	9.37
TTCTTTTTGAAACACACACACACAAGAAAATATATA [CACACA_site3110]	7.29
AAATTTTTTGTTCAATGTACTTTTTTATTATATTTT [XGTACX_site5298]	7.08
ATTTTTTAAATTTAAACACACATTTTGTATATGTTT [CACACA_site1654]	7.02
GATATATAATATAATACACACATTTTATGAATGTAA [CACACA_site24]	6.87
TCTACTATTATATATTGTACAAATGATACTTATATT [XGTACX_site1819]	7.04
TAAAATTTTTGTTTTTGTACGAAACATCAATTTTAC [XGTACX_site4963]	6.95
TTCTATATATTTGGAAGTACATTATATTTATTTTTT [XGTACX_site3172]	7.17
CATATATAAATATGTACACACATATGTATGATCTCA [CACACA_site3868]	7.02
TTATTTATAAGTAATATTATATATTCTTTTAATACA [CACACA_negctrl_site471]	6.59
AGATCTATTATTTTTTGTACTTATATATAAACTTAA [XGTACX_site1737]	7.06
ATAGGCAAAAAGTGTACACATTCATTTATATAAATA [CACACA_site4480]	7.6
AATGGTATAAACAATACACACATAATATAAATATTG [CACACA_site6878]	6.75
TTATATATAAATGTGTGTACTTATAAAATAATCATT [XGTACX_site5370]	7.23
AAAAAAATTACGCAAGTGCATATAATTTAACAAAAA	8.04
ATATATATATATCACGCACACACGAATTTTAAATAT [CACACA_site3131]	9.06
ATCGCGAAGTAGCATTCACACACAGCAAAATATATA [CACACA_site9162]	6.87
AACATTTATATAAAAGAACACACATATAAAATATTA [CACACA_site9199]	6.94
AATGGTAATCCACATACACACACACCGACACATATA [CACACA_site8876]	7.22

Sequence	gcPBM binding intensity (ln)
AAATAACAAAAGAAGGTGCTCATAAAAATTCATACA [GTGCAC_site9864]	8.23
CATTTACCCTTATTAACACACAAAATAAAATACGCT [CACACA_site7249]	7.14
AACAATAGTAAAAATACACACATTAAACTTCATTTC [CACACA_site2126]	6.7
ATACAATGATATATACATATATATATATATATATAT [TGCATGCA_negctrl_site359]	9.86
AAATTATAAAAAAAAAAAAAAAAAAAAAAAAAAAAA [XGTACX_negctrl_site501]	7.19
AAAAAAAAAAAAAAAAAAAAAAAAAAAAAAAAAAAA [CACACA_negctrl_site204]	9.12
GAAAGGACAAGAATAGTGCACATGCAATGTTATTTT [GTGCAC_site9985]	9.8
ACAAAATTTTTAAGAACACACAAAAATGTACTATCG [CACACA_site2550]	6.73
AATCATGCTCCGGAAAGTACATAAATAAATAAATAA [XGTACX_site1690]	7.18
AAAAAAAAAAAACATACACACATACATACATATATA [CACACA_site8222]	7.06
CACATACACATACAAACACACATTATGTATATATAT [CACACA_site1599]	7.44
ATATATACAACTAAAGAACACACATCATTGTTCATT [CACACA_site9224]	7
AAACAATTTTTTAAAAGTACTTGAAAATTGTGAAAT [XGTACX_site2461]	6.99
TGTATATTTGATTCATGTACATATTTTATTTTAACT [XGTACX_site5169]	7.14
CAGATTTATTCAAACGCATGCTGTTTTAAAATAAAA [TGCATGCA_site874]	6.65
CCTATATAATTATAATGTACTTGTAAAAAATATAAC [XGTACX_site2864]	7.42
AAATATAAAAAATATACACACATATATAATATATAT [CACACA_site2963]	7.26
ATCCGCTGCCTTTTGGTGCAGAACATAATCATGTAA	9.39
TTTAAAATATTAAAATGTACATATATATATATATAT [XGTACX_site6784]	9.73
TATATATATATATATACACACATACATATATATATT [CACACA_site8185]	9.25
ACATAAATATATTTTTCACACATCCTTAGTTATGAA [CACACA_site5179]	7.13
AATGTATTTAAACTGACACACAAAAAAAATAAAATA [CACACA_site2138]	7.02
ATATTGTAAGTAAACACACACACATCTATAGGTATA [CACACA_site6462]	7.01

Sequence	gcPBM binding intensity (ln)
AATAGTAAAAGATATACACACACCAAAAAATAGAAT [CACACA_site2289]	7.06
ATTATACATATGTATGCACACATACATACACATATA [CACACA_site9155]	7.18
ATATATATATGTTTATGTACTTATAATAATATAACT [XGTACX_site4828]	8.88
TAATTTAAGAAAAAATGTACACAAATATAATAATAG [XGTACX_site8317]	7.19
ATACATATATGTGTGTGTACATAAATGTATATATTT [XGTACX_site6242]	6.91
GCATGGAACCATATATGTACATATATAAATAAATAA [XGTACX_site4996]	7.16
GTATCTTTCAAAATATGTACATATATATATGTGTGT [XGTACX_site3512]	7.41
AACTTTATTCCTAATTGTACACATATATATATATAT [XGTACX_site6823]	9.34
CGTATAACATATGACACACACACATACATACACAAA [CACACA_site1803]	7.22
GATTTATATAATTCAAGTACTAAAAATATTTTTAAT [XGTACX_site5285]	7.09
AAAAAAAATATCTATGCATGTAATATTATGATATTG [TGCATGCA_site546]	6.86
TAACATTAAAATAAAAGTACTTAATAATATTAAGTA [XGTACX_site5920]	6.76
TTAATAATAAATGAAAGTACATATAAAAAAAAAAAA [XGTACX_site717]	6.84
GTATATTAATAAACATGTACACAATTTATTTATATT [XGTACX_site1012]	7.25
TTTTTTTTTTGAAGTGCATGTTACGATGAAAAAAAA [TGCATGCA_site64]	8.92
TTTTTTTTTAAATGTTGTACATTATATTTGTGTATA [XGTACX_site8354]	6.88
ACATATAAAATGATGCGTACATATTTGATCATATAC [XGTACX_site153]	7.11
CTAAATAACTTAAGGTGTACGTTTCCAATAAAAAAA [XGTACX_site1742]	7.06
TGTAGCCTGGAGAAGAGTACATAGTATCTGGTAGCT [XGTACX_site4943]	6.7
CGTATGTGCGGACATGCATGCAATATACAAGAAAAA [TGCATGCA_site145]	7.29
AATGGAAATTTTTCTTGTACACATATATGACATGTT [XGTACX_site1691]	7.05
TTTTTTTTTACTGCATGTACTTGATGTAAATAAATT [XGTACX_site3045]	7.09
AATATGACGTAGTGGTGTACACACATGGTACCTTTA [XGTACX_site3147]	7.41

Sequence	gcPBM binding intensity (ln)
TATAGAATAATCTATAAACACACAAACACAACAAAA [CACACA_site9374]	7.21
AAAAGATAATTATGCACACACACACCCCCACCCAAC [CACACA_site2570]	9.49
TTATAAATATAATTTTGTACATATATATATATATAC [XGTACX_site5064]	7.39
TTAGAACTATTTTATACATGCAGTTATTTAATACTT [TGCATGCA_site1039]	6.77
ACAACAATTCACTTGATGCACTAACCAAAAAAATAA	8.67
CACGCACGCAGACACACACACACACGCACATATATA [CACACA_site6303]	7.31
ATATATTTTCCTTCAAGTACACATATAAATGTGTAT [XGTACX_site6633]	7.25
ATTAAAATATAAGTCACACATATATATATATATATA [CACACA_site6145]	9.26
TATTTTTTTTTATTTTTTTTTATTTTGTTTTTTTAT [TGCATGCA_negctrl_site315]	6.8
AAAAAAATAATCATCACACACGGAGAATGTCCAATA [CACACA_site5305]	6.84
ACATATATTTTTTTTTGTACATATAAATATATATAT [XGTACX_site6491]	8.15
AACGTAAAACATATCTATCAAAATAAATCATTAATC [TGCATGCA_negctrl_site68]	6.61
AATATAATAATATTTTGTACATATCCTATGTATGAG [XGTACX_site8601]	6.96
AATGTTTATTAACATTGTACTTATAATATGTCACAA [XGTACX_site2974]	6.85
AATAATAAAGATCAATGTACATAATAAAAAAAAAAA [XGTACX_site2692]	6.87
TATCATGGGTGTATTTCACACACGGATAATCATTTA [CACACA_site8211]	6.61
TTATTAAGTAAATCACATTTAATTTTTTTTTTTTTT [CACACA_negctrl_site1280]	6.94
CACATATAAATATTAACACACATAATGAGTTATATA [CACACA_site7316]	6.87
TTATACCATATTTATAGTACGTACAAATAAATCAAT [XGTACX_site4975]	7.3
AAGAAAAAAAAAAAAAGTACATGCAATATGGATCTT [XGTACX_site3106]	6.86
